Experimental data as given in PubChem BioAssay AID504832 (National Center for Advancing Translational Sciences (NCATS), 2011).
The whole screen tested about 310,000 compounds, of which about 18,000 (5.8%) were called active. Inconclusive results, whose numbers are uncertain, are shown with a selection of clear calls. Calls follow the shape of the dose curve; as a rule, active = well fitted inhibition curve with a large enough effect; inconclusive = small, poorly fitted or top-dose-only effect, or another doubt; inactive = no such curve, though single readings can be large or run the other way. Potencies of inconclusive entries are left out as doubtful fits.

Assay: Primary qHTS for delayed death inhibitors of the malarial parasite plastid, 48 hour incubation
Conditions: P. falciparum luciferase growth in erythrocytes; series mostly up to 28.7 µM; activity change, negative = inhibition: at the top concentration
Procedure, shortened: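 Luciferase-expressing parasites in RBCs, 2% Hct / 0.1% parasitemia final; RPMI 1640 + 0.5% Albumax; 37 C, 5% CO2, one generation; luminescence read-out, lower signal = inhibition.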
% is scaled to controls: 0 for no effect and ±100 for the full control effect; potency is read from the fitted curve at half-maximal effect; tags tell the direction and shape of the fitted curve.

SMILES	Potency	activity change, negative = inhibition
COc1ccc(C(=O)NCCC2=CCCCC2)cc1S(=O)(=O)N1CCOCC1	inconclusive [inhibitor, single point]	–
COc1cc2c(cc1OC)-c1cc(Nc3ccccc3)nc(=O)n1CC2	inconclusive [inhibitor, partial curve]	–
CCn1nnc(-c2ccccc2NS(=O)(=O)c2ccc(C(=O)OC)cc2)n1	–	inactive: 2.93%
O=C(CCl)Nc1cccc(Oc2ccccc2)c1	inconclusive [inhibitor, full curve]	–
CC(C)(C)C(=O)N1CCN(c2ccc([N+](=O)[O-])c(NCC3CCCO3)c2)CC1 (centres undefined)	inconclusive [inhibitor, single point]	–
COc1ccc(C(=O)NCc2ccc(Cl)cc2)cc1S(=O)(=O)N1CCCC1	inconclusive [inhibitor, single point]	–
CCN(CC)CCCNC(=O)c1cc(Nc2ccc(OC)cc2OC)nc2ccccc12	–	inactive: 11.5% [at 0.00184 µM]
COCCN(C(=O)CSCc1ccc(C)cc1)c1c(N)n(CC(C)C)c(=O)[nH]c1=O	–	inactive: -24.5%
CC(=O)c1ccc(NC(=S)NCc2ccco2)cc1	–	inactive: 9.63%
CC[N+](CC)(CC)CCOc1ccc(/C=C/c2ccccc2)cc1	active: 0.294 µM	–
COC(=O)C1CCN(C(=O)COC(=O)c2cc(-c3cccs3)nn2-c2ccccc2)CC1	inconclusive [inhibitor, single point]	–
Cc1ccccc1Cn1c(C)nc2ccccc21	inconclusive [inhibitor, partial curve, poor fit]	–
COc1ccc(-n2cc(-c3ccccc3)c3c(N4CCOCC4)ncnc32)cc1	inconclusive [inhibitor, single point]	–
C#CCOCCOCCOCCNc1nc(N2CCN(C(=O)[C@H]([C@@H](C)CC)n3cc(CCCN=C(N)N)nn3)CC2)nc(N2CCN(C(=O)[C@H](CCCCN)n3cc(CCCC)nn3)CC2)n1	inconclusive [inhibitor, single point]	–
Cc1cccc(C)c1OCC(O)CN(Cc1ccccc1O)C1CCCCC1 (centres undefined)	active: 0.262 µM	–
CC1CCN(C(=O)COc2ccc(S(=O)(=O)N3CCOCC3)cc2)CC1	inconclusive [inhibitor, partial curve]	–
CC(C)CNS(=O)(=O)c1ccc(S(=O)(=O)N2CCCN(Cc3ccccc3)C2)cc1	active: 11.7 µM	–
CSc1ncc(/C=C2/C(=O)NC(=O)N(C3CCCCC3)C2=O)cn1	–	inactive: 4.91%
CC(=O)Nc1ccc(S(=O)(=O)N2CCC(c3nc4c(nnn4Cc4ccccc4Cl)c(=O)[nH]3)CC2)cc1	inconclusive [inhibitor, partial curve]	–
